This note sets out measurements from PMC8892516, “Intragenic suppressors unravel the role of the SCREAM ACT-like domain for bHLH partner selectivity in stomatal development” (Proceedings of the National Academy of Sciences of the …, 2022).

Test [1] concerns the target T1, GST-fused SCRM (1-494) (Arabidopsis thaliana) (UniProt Q9LSE2).
T1 sequence: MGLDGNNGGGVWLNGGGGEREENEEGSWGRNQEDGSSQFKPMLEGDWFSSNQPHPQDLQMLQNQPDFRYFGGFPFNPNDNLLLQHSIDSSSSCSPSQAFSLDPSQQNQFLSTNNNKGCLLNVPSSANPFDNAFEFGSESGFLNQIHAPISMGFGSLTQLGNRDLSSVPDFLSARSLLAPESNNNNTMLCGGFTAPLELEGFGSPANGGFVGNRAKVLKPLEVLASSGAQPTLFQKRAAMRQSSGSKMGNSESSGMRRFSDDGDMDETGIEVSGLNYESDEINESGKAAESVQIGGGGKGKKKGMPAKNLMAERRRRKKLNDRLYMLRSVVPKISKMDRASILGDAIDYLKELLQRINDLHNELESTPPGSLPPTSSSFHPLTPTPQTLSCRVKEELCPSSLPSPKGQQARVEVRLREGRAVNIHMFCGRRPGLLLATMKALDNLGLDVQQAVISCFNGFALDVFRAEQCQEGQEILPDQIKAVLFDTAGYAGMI
In words: BLI; as a3, samples incubated for 30 min with a 1:4 molar ratio of the control mutant E-box version of the TMM promoter fragment; both purified. For orientation: In BLI a coated tip is dipped into the sample, and binding shifts an interference pattern.

In test [2] the target is T2, GST-fused SCRMΔC (1-404) (Arabidopsis thaliana) (UniProt Q9LSE2).
T2 sequence: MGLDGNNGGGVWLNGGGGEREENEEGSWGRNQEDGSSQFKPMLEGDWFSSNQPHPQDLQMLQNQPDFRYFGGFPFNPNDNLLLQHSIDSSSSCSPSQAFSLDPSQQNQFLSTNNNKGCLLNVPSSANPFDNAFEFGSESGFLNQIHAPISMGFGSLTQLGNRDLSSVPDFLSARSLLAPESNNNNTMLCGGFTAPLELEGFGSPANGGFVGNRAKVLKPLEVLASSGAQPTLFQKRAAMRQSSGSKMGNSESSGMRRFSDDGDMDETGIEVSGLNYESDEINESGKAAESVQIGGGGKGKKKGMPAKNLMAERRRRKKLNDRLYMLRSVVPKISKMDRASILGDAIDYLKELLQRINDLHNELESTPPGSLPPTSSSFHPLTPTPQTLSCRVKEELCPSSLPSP
The description is as above.

Test [3] deals with T1, GST-fused SCRM (1-494) (Arabidopsis thaliana). In words: BLI; as a3, samples incubated for 30 min with a 1:4 molar ratio of the TMM promoter DNA fragment; both purified.
Test [4] has as its target T2, GST-fused SCRMΔC (1-404) (Arabidopsis thaliana). The test is described as above.
Test [5] addresses T1, GST-fused SCRM (1-494) (Arabidopsis thaliana). In words: BLI; as a3, samples incubated for 30 min with a 1:4 molar ratio of the synthetic E-box DNA fragment; both purified.
Test [6] addresses T2, GST-fused SCRMΔC (1-404) (Arabidopsis thaliana). The description is as above.
For test [7], the target named is T3, SPCH-nYFP (Arabidopsis thaliana) (UniProt Q700C7).
T3 sequence: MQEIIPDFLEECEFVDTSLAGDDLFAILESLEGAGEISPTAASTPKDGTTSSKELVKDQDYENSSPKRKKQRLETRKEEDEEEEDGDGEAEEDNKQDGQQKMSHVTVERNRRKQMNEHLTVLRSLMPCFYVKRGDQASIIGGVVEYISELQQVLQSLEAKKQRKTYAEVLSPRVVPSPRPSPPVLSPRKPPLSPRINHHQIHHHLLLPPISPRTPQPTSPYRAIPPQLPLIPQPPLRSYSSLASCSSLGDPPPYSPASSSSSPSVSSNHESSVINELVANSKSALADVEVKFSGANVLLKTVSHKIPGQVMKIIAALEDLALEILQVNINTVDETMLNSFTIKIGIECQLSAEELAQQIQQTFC
In words: split reporter; BiFC, nYFP and cYFP fusions coinfiltrated with p19 into N. benthamiana leaves, confocal imaging 2 d after infiltration.

The target in test [8] is T4, MUTE-nYFP (Arabidopsis thaliana) (UniProt Q9M8K6).
T4 sequence: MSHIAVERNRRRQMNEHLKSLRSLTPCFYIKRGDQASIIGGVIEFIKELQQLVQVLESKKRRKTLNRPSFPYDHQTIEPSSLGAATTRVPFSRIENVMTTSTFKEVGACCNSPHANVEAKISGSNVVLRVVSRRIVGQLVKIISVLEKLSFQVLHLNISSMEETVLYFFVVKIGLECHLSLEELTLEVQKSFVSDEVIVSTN
The description is as above.

In test [9] the target is T5, FAMA-nYFP (Arabidopsis thaliana) (UniProt Q56YJ8).
T5 sequence: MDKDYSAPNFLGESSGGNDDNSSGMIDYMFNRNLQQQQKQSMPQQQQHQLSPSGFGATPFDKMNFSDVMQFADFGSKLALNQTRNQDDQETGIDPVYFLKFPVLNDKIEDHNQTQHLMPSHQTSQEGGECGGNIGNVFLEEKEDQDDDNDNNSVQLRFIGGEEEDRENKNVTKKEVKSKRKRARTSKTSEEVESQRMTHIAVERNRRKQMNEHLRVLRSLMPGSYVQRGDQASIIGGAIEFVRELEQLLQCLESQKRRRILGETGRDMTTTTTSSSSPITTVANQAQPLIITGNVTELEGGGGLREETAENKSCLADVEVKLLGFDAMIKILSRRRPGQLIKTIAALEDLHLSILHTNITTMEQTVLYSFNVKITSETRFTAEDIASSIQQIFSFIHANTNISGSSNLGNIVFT
The description is as above.

In test [10] the target is T6, MUTE fused to the DNA binding domain (Arabidopsis thaliana) (UniProt Q9M8K6).
T6 sequence: T4 sequence
In words: two-hybrid; Matchmaker 3 system, yeast AH109; DNA binding domain fusions as bait, activation domain fusions as prey; SD -Trp -Leu -His with 0.1, 0.5 and 1 mM 3-amino-1,2,4-triazole.

The target in a further test is T7, MUTE-ACTL (114-202) (Arabidopsis thaliana, UniProt Q9M8K6 114-202).
T7 construct: MUTE, Arabidopsis thaliana, C-terminal ACT-like domain, residues 114-202; also called MUTE ACTL domain; source: E. coli BL21, purified (glutathione resin, thrombin, Superdex-200); not shown: GST, N-terminal, cleaved
T7 sequence (looked up): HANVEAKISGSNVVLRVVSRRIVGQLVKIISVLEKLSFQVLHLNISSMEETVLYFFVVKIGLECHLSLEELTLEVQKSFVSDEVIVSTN
In words: condition: 150 μM SCRM L484F ACTL injected into 15 μM MUTE ACTL; ITC; Malvern PEAQ-ITC, 25 °C, PBS pH 7.4; 150 μM SCRM ACTL/SCRM L484F ACTL injected into 15 μM SPCH ACTL/MUTE ACTL; both purified.

For test [11], the target named is T8, scrm-D L484F-cYFP (Arabidopsis thaliana) (UniProt Q9LSE2).
T8 sequence: T1 sequence with R236H, L484F
In words: split reporter; BiFC; N. benthamiana leaves co-infiltrated with nYFP and cYFP fusions and p19; confocal imaging 2 d after infiltration.

Changes are numbered by the printed parent chain. Numbers in names are those of the source. Results are given in words; binding and its absence hold for the method and conditions named. For part of these data: In cells and extracts the contact can be indirect. Some binding calls cover weakened binding; strength is not graded here. For part of these data: Where a sequence is shown, tags or fusion partners need not be part of it.

B1: ΔNSPCH (98-364), recombinant (domain or fragment, Arabidopsis thaliana, UniProt Q700C7 98-364, looked up)
chain: GQQKMSHVTVERNRRKQMNEHLTVLRSLMPCFYVKRGDQASIIGGVVEYISELQQVLQSLEAKKQRKTYAEVLSPRVVPSPRPSPPVLSPRKPPLSPRINHHQIHHHLLLPPISPRTPQPTSPYRAIPPQLPLIPQPPLRSYSSLASCSSLGDPPPYSPASSSSSPSVSSNHESSVINELVANSKSALADVEVKFSGANVLLKTVSHKIPGQVMKIIAALEDLALEILQVNINTVDETMLNSFTIKIGIECQLSAEELAQQIQQTFC
notes: BLI and ITC name it only SPCH; ΔNSPCH (98-364) is the only long recombinant SPCH construct that the methods list; also called purified SPCH; source: E. coli BL21, purified (glutathione resin, thrombin, Superdex-200); not shown: GST, N-terminal, cleaved
Consider B1, for which the binding result in test [1], in [2], in test [3], in test [4], in [5] and in [6] was “binds” each time.

B2: SCRM-cYFP (protein, UniProt Q9LSE2 1-494)
chain: T1 sequence
Turning to B2, the binding result in [7], in [8] and in test [9] was “binds” in each case.

B3: scrm-D-cYFP (protein, UniProt Q9LSE2 1-494)
chain: T1 sequence with R236H
B3: the binding result in test [7], in [8] and in [9] was “binds” each time.

B4: scrm-D fused to the activation domain (protein, UniProt Q9LSE2 1-494)
chain: T1 sequence with R236H
Take B4: in test [10], the binding result is “binds”.

B5: SCRM_(L484F)-cYFP (protein, UniProt Q9LSE2 1-494)
chain: T1 sequence with L484F
Consider B5, for which the binding entry in test [7] is “binds”; in test [8], “no binding”; in test [9], “binds”.

B6: scrm-D_(L484F)-cYFP (protein, UniProt Q9LSE2 1-494)
chain: T1 sequence with R236H, L484F
B6: the values for the binding entry in test [7], in test [8] and in [9] were “binds”, “no binding” and “binds”, respectively.

B7: scrm-D_(L484F) fused to the activation domain (protein, UniProt Q9LSE2 1-494)
chain: T1 sequence with R236H, L484F
On to B7, for which the binding result in [10] was “no binding”.

B8: SCRM_(L484F) fused to the activation domain (protein, UniProt Q9LSE2 1-494)
chain: T1 sequence with L484F
With B8, the binding entry in [10] was “no binding”.

B9: SCREAM (SCRM) fused to the activation domain (protein, UniProt Q9LSE2 1-494)
chain: T1 sequence
Take B9: the binding result in test [10] is recorded as “binds”.

B10: SCRM ACTL L484F (405-494) (domain or fragment, Arabidopsis thaliana, UniProt Q9LSE2 405-494, looked up)
chain: KGQQARVEVRLREGRAVNIHMFCGRRPGLLLATMKALDNLGLDVQQAVISCFNGFALDVFRAEQCQEGQEILPDQIKAVFFDTAGYAGMI
notes: SCREAM (SCRM, ICE1), Arabidopsis thaliana, At3G26744, C-terminal ACT-like domain, residues 405-494, with L484F (the methods print L485F); also called SCRM L484F ACTL; source: E. coli BL21, purified (glutathione resin, Superdex-200)
Consider B10, for which, in the test with MUTE-ACTL (114-202), the binding entry was “no binding”.

B11: MUTE-nYFP (protein, UniProt Q9M8K6 1-202)
chain: T4 sequence
Regarding B11, in [11], the binding entry is listed as “no binding”.
